Source: ChEMBL document CHEMBL4888484, “Replenishing the malaria drug discovery pipeline: Screening and hit evaluation of the MMV Hit Generation Library 1 (HGL1) against asexual blood stage Plasmodium falciparum ,using a nano luciferase reporter read-out” (2022)
Where “and” joins values, the source holds several entries; their conditions need not be identical. Identical values can stand only once. Screen size: about 150,000 compounds; about 540 (0.36%) showed an effect of 50% or more. Some of the results follow.

Test system: Plasmodium falciparum
Test: Primary screen in NF54 nanoGlo assay, in single point, at 2uM, 72h; a lower Z score goes with more inhibition
Assay type: functional, Erythrocyte
Settings: timepoint 72 hour

| Compound | % Inhibition [%] | Z score | % Inhibition (2 µM) |
| --- | --- | --- | --- |
| O=C(c1coc(COc2cccc(F)c2)n1)N1CCCCCC1 | -24 | 2.15 |  |
| O=c1c(S(=O)(=O)N2CCCC2)cccn1Cc1noc(Cc2ccccc2)n1 | -1 | 0.15 |  |
| O=C(Cn1ccnc1C(O)c1ccccc1)NCC1CCCO1 (stereo not drawn) | -6 | 1.09 |  |
| COCCNCCOCCOc1ccccc1 | -14 | 2.2 |  |
| CCc1c(C)noc1NC(=O)C[C@H]1C(=O)N(C)C(=O)N1C | -6 | 1.12 |  |
| CCN1CCCC[C@@H]1Cn1cnc(-c2ccccc2)c1-c1ccc(C#CCO)s1 | -10 | 1.86 |  |
| Cc1cccc(O[C@H]2CCN(C(=O)Cn3cnc4ccccc4c3=O)C2)n1 | -14 | 2.61 |  |
| COc1nn(C)cc1C(=O)N1CCC(N2c3ccccc3N(C)S2(=O)=O)CC1 | 4 | -0.5 |  |
| O=C(c1cc(=O)c(OCc2ccccc2)c[nH]1)N1CCCC1 |  |  | -12% and -2% |
| CCn1ncc(C)c1NC(=O)N1CCC(F)(F)C[C@@H]1C | -8 | 1.21 |  |
| Cc1ccc(-c2cc(O)c3c(c2)CN(CCn2ccnc2C)CCO3)cc1 | -11 | 1.04 |  |
| COCC(C)(C)C(=O)Nc1ccncc1Br | 1 | -0.11 |  |
| Cc1cc(C)n(Cc2nc(-c3ccoc3)no2)n1 | -13 | 1.28 |  |
| COc1ccc(Nc2nnc(-c3ccc(C)cc3)c3ccccc23)cc1C(=O)N1CCCCC1 | 17 | -2.16 |  |
| CN(CCCNC(=O)Cc1cccnc1)c1ccc(F)cc1 | -10 | 1.37 |  |
| Cn1ccc(NCC(C)(C)CCC#N)n1 | 3 | -0.4 |  |
| COc1cc(OC)c(N2C[C@@H](C(=O)N3CC(=O)Nc4ccccc43)CC2=O)cc1Cl | -13 | 1.85 |  |
| CC(C)n1ccnc1CN1CCCn2nc(CNC(=O)N(C)C)cc2C1 | 0 | 0.03 |  |
| CCNC(=O)[C@H]1CCN(c2nc(-c3ccccc3)nc3c2CCNC3)C1 | -6 | 0.72 |  |
| COc1ccccc1N1CCN(C(=O)C2CC2c2ccco2)CC1 (stereo not drawn) | -3 | 0.41 |  |
| COc1ccccc1N1CCN(C(=O)Cc2csc(-n3nc(C)c(Cl)c3C)n2)CC1 | -10 | 1.87 |  |
| O=C(CCc1nc(-c2ccc(S(=O)(=O)N3CCCC3)cc2)no1)N1CCCC1 | 0 | 0.05 |  |

| Compound | % Inhibition [%] | Z score | % Inhibition (2 µM) |
| --- | --- | --- | --- |
| Cc1ccccc1C(=O)NCC(=O)N1CCC(C2CCCC2)CC1 | 28 | -3.82 |  |
| CCCNC(=O)COc1c(Cl)cccc1CCC(=O)OC | -2 | 0.22 |  |
| CN1CCC2(CC1)CN(c1ncnc3c1cnn3C)Cc1ccccc12 | -4 | 0.67 |  |
| O=C(c1ccccc1F)N1CCN(C(=O)c2nnn3c2CO[C@H](c2ccc(Cl)cc2)C3)CC1 | -24 | 2.19 |  |
| COc1cc(Cl)c(CNC(C)(C)CO)cc1OC | 4 | -0.67 |  |
| Cc1ccncc1CN(C)c1ccnc(C#N)c1 | 1 | -0.18 |  |
| CC(C)n1ccc(CNC(=O)N[C@@H](C)CCc2cccn2C)n1 | 2 | -0.41 |  |
| CCOc1cc(C(=O)CC#N)cc(OCC)c1OCC | -3 | 0.41 |  |
| C[C@@H]1CN(Cc2nnnn2CC(=O)N2CCCCCCC2)C[C@H](C)O1 | -6 | 1.11 |  |
| Cc1c(CN(C)C2CCN(c3nnc(-c4ccccc4)s3)CC2)cnn1C | 3 | -0.3 |  |
| Cc1cc(CNC(=O)C2CCCC2)c(C)o1 | -6 | 0.84 |  |
| COCc1nc(Cn2ncc3ccccc3c2=O)no1 | -3 | 0.43 |  |
| O=C1CN(C(=O)C2CC23CCOc2ccccc23)c2ccncc2N1 (stereo not drawn) | 1 | -0.12 |  |
| CCC(NC(=O)NC(C)(CO)C1CC1)c1ccccc1OC (stereo not drawn) | -5 | 0.41 |  |
| COc1ccccc1Cn1ncc2[nH]c(-c3cccn3-c3nccs3)nc21 | -13 | 1.8 |  |
| c1cc(CN[C@H]2CC3CCC2CC3)n[nH]1 | -7 | 0.84 |  |
| C[C@@H](c1ccc(C(=O)NC2(C(N)=O)CCCC2)o1)N1CCCCC1 | 10 | -1.34 |  |
| COc1ccc([C@H]2C3CCCCC3(O)CCN2C/C=C/c2ccccc2)cc1 (stereo partly drawn) | -4 | 0.68 |  |
| CCc1cccnc1NC(=O)CC1(OC)CCC1 | 0 | -0.02 |  |
| Cc1cc(N2CCC(c3nncn3C(C)C)CC2)c(C#N)c(C)n1 | -16 | 1.8 |  |
| CC(C)N(C(=O)c1ccn(C)c(=O)c1)[C@H]1CCCc2cccnc21 | -13 | 1.34 |  |
| Cn1cc(CNC2(C(N)=O)CCCCC2)cn1 | 14 | -2.67 |  |

| Compound | % Inhibition [%] | Z score | % Inhibition (2 µM) |
| --- | --- | --- | --- |
| COc1cc(Cl)ccc1-c1nc(-c2ccc3c(c2)ncn3CCC(=O)N2CCCCC2)no1 | -18 | 2.29 |  |
| CCc1cnccc1C(=O)N1CC(=O)Nc2cccc3cccc1c23 | 1 | -0.16 |  |
| C[C@@H](C(=O)Nc1nnc[nH]1)c1ccc2c(c1)[nH]c1ccc(Cl)cc12 | -7 | 0.71 |  |
| COc1ccc(-c2noc(NCc3ccc(OC)cc3OC)n2)cc1 | -10 | 0.88 |  |
| Cc1cccc(CN2CCC(CNC(=O)[C@H]3CCCN(c4cc(=O)n(C)c(=O)n4C)C3)CC2)c1 | 3 | -0.55 |  |
| Cc1cccc(CN2CCC[C@@]3(CCN(C(=O)c4[nH]c(C)cc4C)C3)C2)c1 | -9 | 1.14 |  |
| Cc1cc(C(=O)NCCN2CC=CCC2)[nH]n1 | -3 | 0.45 |  |
| O=C(CN1CCOC2CCCCC21)NC1CCCCNC1=O (stereo not drawn) | 0 | 0.07 |  |
| Cc1cc(C)c2nc(N3CCC(C(=O)N4CCN(c5cccc(C)c5C)CC4)CC3)sc2c1 | -3 | 0.32 |  |
| O=S(=O)(c1ccc(Cl)s1)N1CCC[C@H]1c1ccccc1F | -6 | 1.09 |  |
| COc1nn(C)cc1C(=O)NCCc1nc2c(c(C(F)(F)F)n1)CCCC2 | -19 | 2.19 |  |
| O=C(CCN1CCCCO1)NCc1cccnc1N1CCCCCCC1 | 13 | -1.64 |  |
| O=C(O)[C@H]1CCCN(C(=O)NC2CC=C(c3ccc(F)cc3)CC2)C1 (stereo partly drawn) | -13 | 2.6 |  |
| C#CCN(Cc1nc(C)ccc1O)[C@H]1CCS(=O)(=O)C1 | 10 | -1.74 |  |
| O=C(Nc1cccc2nsnc12)C1CCC1 | 0 | -0.03 |  |
| O=C(c1cc(-c2ccccc2)c(N2CCOCC2)s1)N1CCC(C(=O)N2CCCCCC2)CC1 | 9 | -1.59 |  |
| O=C([C@@H]1CNCCO1)N1CCN(c2ccccc2F)CC1 | -17 | 1.98 |  |
| CN(C)S(=O)(=O)CCNc1ncnc2c1Cc1ccccc1OC2 | -9 | 1.72 |  |
| Cn1cnc(C(=O)N2CCN(C(=O)Cc3c[nH]c4ccccc34)CC2)n1 | 13 | -1.7 |  |
| CCc1ncc(CN(C)C(=O)[C@@H](N)C(C)C)s1 | -10 | 1.03 |  |
| c1cc2ncnc(NC3CCCCCC3)c2cn1 | -6 | 1.04 |  |
| COCC(=O)Nc1cc(C)nn1-c1nc2c(cnn2-c2ccc(F)cc2)c(=O)[nH]1 | -12 | 2.34 |  |

| Compound | % Inhibition [%] | Z score | % Inhibition (2 µM) |
| --- | --- | --- | --- |
| CCOC(=O)c1nc(NCc2ccc(Cl)cc2)c2c(C)noc2n1 | 11 | -2 |  |
| O=S(=O)(NC[C@H]1OC[C@@H](NCc2ccccc2F)[C@@H]1O)c1ccccc1 | -14 | 2.19 |  |
| CC[C@@H](C(=O)N[C@H]1CC[C@H](Oc2ncccn2)CC1)c1ccccc1 | 18 | -2.04 |  |
| CCC(CC)(CC(=O)Nc1cccc(CO)c1)C(=O)O | -3 | 0.64 |  |
| COC1C2CC3CN(C(=O)CCc4nc5ccccc5o4)C1C3C2 (stereo not drawn) | -3 | 0.64 |  |
| Cc1nc(CC(N)=NOCCN2CC3CCC(C2)O3)cs1 | -16 | 1.32 |  |
| C[C@H](N1CCN(C(=O)NCCOc2cccnc2)CC1)C(F)(F)F | -6 | 0.84 |  |
| O=C(CN1CCN(c2ccc(C(F)(F)F)nn2)CC1)Nc1ccc(Cl)cc1 | -5 | 0.67 |  |
| CCCc1occc1C(=O)N[C@@H](C)C1(OC)CCC1 | -10 | 1.31 |  |
| Brc1ccc(-c2csc(N3CC[C@H](c4ccccc4)C3)n2)cc1 | -10 | 1.33 |  |
| Cc1ccccc1-c1noc(CN(C)CC(=O)Nc2cccc(C)c2C)n1 | 4 | -0.42 |  |
| CCCCc1nnc(NCc2ccon2)o1 | -11 | 1.27 |  |
| CC(=O)Nc1ccc(CNc2nnc(C3CCCCC3)o2)cc1 | -7 | 0.87 |  |
| O=C1C2CCCC1CC(C(=O)N1CCc3ccccc31)C2 (stereo not drawn) | -11 | 1.29 |  |
| Cc1cc(CC(=O)Nc2c(F)cccc2NC2CC2)no1 | -5 | 0.54 |  |
| CC(C)(C)n1cc(CN2c3ccccc3CC[C@@H]2CCO)cn1 | -12 | 2.24 |  |
| Cc1ncn(C)c1C(=O)N1CCC(Cn2ccnc2)CC1 | -13 | 1.39 |  |
| Cc1nsc(C)c1NC(=O)C(F)F | 0 | -0.07 |  |
| CC1(C(=O)Nc2cccc(C(=O)NC3CC3)c2)COC1 | -10 | 1.57 |  |
| C[C@H]1CCN(C(=O)Nc2ccc(C(F)F)cc2)CCS1(=O)=O | 6 | -0.86 |  |
| CCc1ccc(C(=O)Nc2ccc3c(c2)N(C)C(=O)c2ccccc2O3)cc1 | -12 | 1.73 |  |
